Results taken from PubChem BioAssay AID1508624 (National Center for Advancing Translational Sciences (NCATS), 2021).
Screen size: about 48,000 compounds; about 120 (0.25%) were called active. Another 4% or so got no clear call; they are omitted. The call rests on the fitted dose curve; in most records, active means well fitted activation curve with a large enough effect; inconclusive means small, poorly fitted or top-dose-only effect, or another doubt; inactive means no such curve, though single readings can be large or run the other way. The list shows a part of the results.

Assay: Primary qHTS for Identification of Small Molecule Activators of Huntingtin-Antisense Promoter Activity; further: nearly all actives have a fitted effect of over 55% in size
Details: HEK293 HTT-AS promoter firefly luciferase reporter, 24 h; series mostly up to 57.5 µM; activity change, positive = activation: at the top concentration
How it was run: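 HEK293 luciferase promoter-reporter cells (2,500/well) plated 24 h, then compounds added at up to 57.5 uM final for 24 h at 37 °C. Firefly luminescence by Dual-Glo, normalized to vehicle (0%) and zero RLU (-100%).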

Activity change, positive = activation, inactive:
Cc1ccc2c(c1)c1c(c(=O)n(Cc3ccccc3)c(=O)n1Cc1cccc(F)c1)n2C -11%, COc1ccc(-c2nc3ccccc3o2)cc1NC(=O)c1cc([N+](=O)[O-])ccc1N1CCOCC1 24%, Cc1ccc(S(=O)(=O)c2cn(CC(=O)Nc3ccc4c(c3)OCO4)c3ccc(C)cc3c2=O)cc1 -0.509%, COc1ccc(-c2ccc(CCC(=O)O)n2-c2ccccc2C(F)(F)F)cc1 -19%, CCC1CN(CC(=O)NCc2cccc(Br)c2)c2ccccc2S1 (centres undefined) -19.6%, CC[C@H](c1ccc(O)cc1)[C@@H](CC)c1ccc(O)cc1 -28.3%, CCOc1ccc(-c2cc(C)n3nc(C(=O)Nc4ccc(C)c(C)c4)cc3n2)cc1 -35.1%, Cc1c(Nc2ncccc2C(=O)O)cccc1C(F)(F)F 13.2%, CCc1nnc(SCC(=O)Nc2ccc(OC)c(OC)c2)c2cc3occc3n12 -20.2%, CC(Oc1ccccc1)C(=O)Nc1ccccc1C(=O)OCc1cc(=O)n2nc(C3CC3)sc2n1 (centres undefined) 4.95%, CCc1ccc(N2CC(C)Cn3c2nc2c3c(=O)n(CC(=O)O)c(=O)n2C)cc1 (centres undefined) -5.85%, COC(=O)Cc1c(C)nc2nc(NCc3ccc(Br)cc3)[nH]n2c1=O -3.6%, CCOC(=O)CN(Cc1ccccc1)C(C(=O)NC1CCCCC1)c1ccccc1 (centres undefined) -43.3%, CCOc1ccc(-n2cc(-c3ccccc3)c3c(NCc4ccccc4)ncnc32)cc1 -17.4%, COC(=O)Cc1c(C)c2ccc3c(c2oc1=O)CN(Cc1ccc(Cl)cc1)CO3 -22.8%, COCCn1c(SCc2ccccc2F)nc2c([nH]c3ccccc32)c1=O -26.2%, COc1ccc(CNC(=O)C2CCN(S(=O)(=O)N3CCC(C)CC3)CC2)c(OC)c1 -23.1%, Cc1cccc(CNC(=O)c2ccc(Cn3c(SCc4cccc(F)c4)nc4cccnc43)cc2)c1 -32%, COc1cc(CN(C(=O)c2ccc(C)cc2)C2CCS(=O)(=O)C2)cc(OC)c1OC (centres undefined) 5.8%, CCCSc1ncc(Cl)c(C(=O)Nc2ccc(S(=O)(=O)N3CCCCC3C)cc2)n1 (centres undefined) -37.2%, COc1cccc(NC(=O)C2CC(=O)N(c3ccc(Br)cc3)C2)c1 (centres undefined) -14.5%, COc1ccc(NC(=O)CCn2cnnn2)cc1 -2.62%, CC(C)(C)c1ccccc1NC(=O)CSc1nc(-c2cccs2)cc(C(F)(F)F)n1 -33.1%, Cc1nn(CC(=O)Nc2cc(F)ccc2F)c(=O)c2cccn12 -4.91%, CC(C)c1noc(-c2ccccc2OCC(=O)Nc2ccccc2[N+](=O)[O-])n1 -32.7%, Cc1cc(Nc2ccc(Cl)cc2C)nc(-n2nc(C)cc2C)n1 -38.5%, O=C(NCc1ccc2c(c1)CCN2C(=O)c1ccc(F)cc1)c1ccco1 -11.8%, Cc1c(CNC2CCCCC2)c(C(=O)O)c(C)n1Cc1ccc(F)cc1 -12.7%, CCC(=O)Nc1ccc2nc3c(=O)n(C)c(=O)n(C)c3nc2c1 5.67%, CCOc1ccc(C(=O)Nc2ccc(-n3nncc3-c3ccccc3)cc2)cc1OCC -33.5%, CCN(C(=O)c1cc2c(=O)n3cccc(C)c3nc2s1)c1ccc(C)c(C)c1 -21.3%, CCOC(=O)[C@H]1O[C@H]1C(=O)N[C@@H](CC(C)C)C(=O)NCCC(C)C -7.39%, CCC(NC(=O)Nc1cc(OC)ccc1OC)c1c(-n2cccc2)sc2c1CCN(CC)C2 (centres undefined) -14.6%, CCOC(=O)c1ccc(NC(=O)C2(S(=O)(=O)c3ccc(Cl)cc3)CC2)cc1 -15.5%, C=Cc1ccc(COc2ccc3oc(-c4ccccc4)c(C(=O)OCC)c3c2)cc1 28% [at 11.5 µM, percent change from vehicle, -100% = no light], COc1ccc(CNC(=O)c2cc(=O)c3cc(C)ccc3o2)cc1 -14.4%, Cc1cccc(C)c1NS(=O)(=O)c1ccc(NS(=O)(=O)c2ccc3c(c2)OCCO3)cc1 -28.2%, Cc1ccccc1NC(=O)CCC(=O)N1CC(C)Sc2ccccc21 (centres undefined) -26.5%, COc1cccc(CNC(=O)CSC2=Nc3ccccc3C3=NC(C(C)C)C(=O)N23)c1 (centres undefined) 12%, Cc1ccc(C)c(N2CCN(CCCNC(=O)c3ccc4nc(N5CCCCC5)sc4c3)CC2)c1 -35.4%, Cc1ccc(-c2nnc(Nc3ccccc3)c3ccccc23)cc1S(=O)(=O)NCc1nc2ccccc2[nH]1 -33.1%, Cc1cccc(N2CCN(C(=O)CCS(=O)(=O)c3ccc4c(c3)oc(=O)n4C)CC2)c1C 5.6% [at 11.5 µM, percent change from vehicle, -100% = no light], CCOC(=O)COc1ccc([N+](=O)[O-])cc1-c1ccnc2cc(-c3ccc(C)cc3)nn12 -6.09%, COc1ccc(C(=O)N(c2ccc(OC)cc2)S(=O)(=O)c2ccc3c(c2)n(C)c(=O)n3C)cc1 -9.4%, COc1ccccc1C(=O)Nc1cccc(C(=O)OCc2cc(=O)n3nc(C)sc3n2)c1 -3.66%, O=C(c1cc2ccc3cccnc3c2[nH]1)N1CCN(c2ccc(Cl)cc2)CC1 -0.746%, Cc1c(Cl)cccc1NC(=O)Cn1nnc2sc3c(c2c1=O)CCCC3 -6.63%, O=C(O)C1(Cc2cccc(Nc3nccs3)n2)CCC(Oc2cccc(Cl)c2F)CC1 (centres undefined) -13.5%, O=C(Nc1cccc(Cl)c1Cl)c1cc(S(=O)(=O)NCCc2ccccc2)ccc1F -20.1%, O=C(CN1C(=O)C2(SCC(=O)N2c2ccccc2)c2ccccc21)NCc1ccccc1 (centres undefined) -8.41%, NC(=O)CSc1ncc2c(n1)-c1ccccc1N(Cc1ccc(Cl)cc1)S2(=O)=O -4%, CCCNC(=O)C(CC)n1nc(CC)n2c(cc3oc(C)cc32)c1=O (centres undefined) -27.6%, COc1cccc(C(=O)c2cn(CC(=O)NCCc3ccccc3)c3nc(C)ccc3c2=O)c1 -12.1%, CCOC(=O)N1CCc2c(sc3c2C(=O)NC(c2cc(OC)c(O)c(OC)c2)N3)C1 (centres undefined) 9.07%, CCCN(CCC)CCCNC(=O)Cn1cc2c(n1)-c1c(oc(C(=O)N3CCCC3)c1C)CC2 -11.4%, COc1cccc(NC(=O)Cn2c(=O)n(CCc3ccccc3)c(=O)c3c4c(sc32)CN(C(C)=O)CC4)c1 -29%, Cc1ccc(C(=O)c2oc3ccccc3c2NC(=O)COc2ccccc2Cl)cc1 -4.69%, CCOc1ccc(NC(=O)NCc2ccc3c(c2)CCN3C(C)=O)cc1 8.3%, CCOC(=O)c1cc2c(=O)n3ccccc3nc2n(CC2CCCO2)c1=NC(=O)c1ccc(OC)cc1OC (centres undefined) -3.75%
